What all share (assay): Cell proliferation assay (CellTiter-Glo)
Type in all cases: cell-based
Background: In ATP-based viability assays light output follows the ATP content of the culture.

The test system of one assay is A549. The note with it: Homo sapiens, NSCLC, 72 hours, 0.5% fetal bovine serum, read-out: antiproliferative activity IC50, A549. As for the experimental part:
(§1) Cell Proliferation Assay:
(§2) Cancer cell lines were plated at 5,000 to 10,000 per well in 96-well flat bottomed plates with various concentration of compounds. The cells were incubated with compounds for 72 hours in the presence of 0.5% of fetal bovine serum. Growth inhibition was accessed by adenosine triphosphate (ATP) content assay using Promega CellTiter-Glo kit. Promega CellTiter-Glo kit is an ATP monitoring system based on firefly luciferase. Briefly, 16 μl of mammalian cell lysis and substrate solution was added to 84 μl of culture medium per well to lyse the cells and stabilize the ATP. The mixture was shaken and incubated for 30 minutes and subsequently the luminescence was measured.

Another assay relates to CFPAC-1. The note with it: Homo sapiens, Pancreas, 72 hours, 0.5% fetal bovine serum, read-out: antiproliferative activity IC50, CFPAC-1. The method, then: as §1, §2
In the next assay the test system is CaPan1. The note with it: Homo sapiens, CAPAN-1; Pancreas; 72 hours, 0.5% fetal bovine serum; read-out: antiproliferative activity IC50, CaPan1. As for the experimental part:
as §1, §2

For another assay, the system named is CaPan2. The note with it: Homo sapiens, Capan-2; Pancreas; 72 hours, 0.5% fetal bovine serum; read-out: antiproliferative activity IC50, CaPan2. As for the experimental part:
as §1, §2

Another assay has as its system Calu6. The note with it: Homo sapiens, Calu-6; NSCLC; 72 hours, 0.5% fetal bovine serum; read-out: antiproliferative activity IC50, Calu6. The method, then: as §1, §2
For the next assay, the system named is H2122. The note with it: Homo sapiens, NCI-H2122; NSCLC; 72 hours, 0.5% fetal bovine serum; read-out: antiproliferative activity IC50, H2122. As for the experimental part:
as §1, §2

Another assay concerns H292. The note with it: Homo sapiens, NCI-H292; NSCLC; 72 hours, 0.5% fetal bovine serum; read-out: antiproliferative activity IC50, H292. As for the experimental part:
as §1, §2

The next assay deals with H358. The note with it: Homo sapiens, NCI-H358; NSCLC; 72 hours, 0.5% fetal bovine serum; read-out: antiproliferative activity IC50, H358. As for the experimental part: as §1, §2
Another assay relates to H460. The note with it: Homo sapiens, NCI-H460; NSCLC; 72 hours, 0.5% fetal bovine serum; read-out: antiproliferative activity IC50, H460. The method, then:
as §1, §2

Another assay has as its system HCT116. The note with it: Homo sapiens, HCT-116; Colon; 72 hours, 0.5% fetal bovine serum; read-out: antiproliferative activity IC50, HCT116. As for the experimental part:
as §1, §2

For another assay, the system named is LN-Cap. The note with it: Homo sapiens, LNCaP; Prostate; 72 hours, 0.5% fetal bovine serum; read-out: antiproliferative activity IC50, LN-Cap. As for the experimental part:
as §1, §2

Another assay concerns MDA-MB-231. The note with it: Homo sapiens, Breast, 72 hours, 0.5% fetal bovine serum, read-out: antiproliferative activity IC50, MDA-MB-231. The method, then: as §1, §2
In a further assay the test system is MiaPaca1. The note with it: Pancreas; 72 hours, 0.5% fetal bovine serum; read-out: antiproliferative activity IC50, MiaPaca1. As for the experimental part:
as §1, §2

The subject of the next assay is OPM-2. The note with it: Homo sapiens, Multiple Myeloma, 72 hours, 0.5% fetal bovine serum, read-out: antiproliferative activity IC50, OPM-2. As for the experimental part: as §1, §2
The test system of a further assay is OVCAR-5. The note with it: Homo sapiens, Ovarian, 72 hours, 0.5% fetal bovine serum, read-out: antiproliferative activity IC50, OVCAR-5. The method, then: as §1, §2
The subject of another assay is PANC-1. The note with it: Homo sapiens, Pancreas, 72 hours, 0.5% fetal bovine serum, read-out: antiproliferative activity IC50, PANC-1. The method, then:
as §1, §2

A further assay has as its system PC-3. The note with it: Homo sapiens, Prostate, 72 hours, 0.5% fetal bovine serum, read-out: antiproliferative activity IC50, PC-3. As for the experimental part:
as §1, §2

For the next assay, the system named is SW1990. The note with it: Homo sapiens, Pancreas, 72 hours, 0.5% fetal bovine serum, read-out: antiproliferative activity IC50, SW1990. As for the experimental part:
as §1, §2

In the next assay the test system is SW403. The note with it: Homo sapiens, SW-403; Colon; 72 hours, 0.5% fetal bovine serum; read-out: antiproliferative activity IC50, SW403. The method, then:
as §1, §2

A further assay concerns SW620. The note with it: Homo sapiens, SW-620; Colon; 72 hours, 0.5% fetal bovine serum; read-out: antiproliferative activity IC50, SW620. As for the experimental part: as §1, §2
A further assay has as its system SWI-116. The note with it: Colon; 72 hours, 0.5% fetal bovine serum; read-out: antiproliferative activity IC50, SWI-116. As for the experimental part:
as §1, §2

Another assay deals with T-84. The note with it: Homo sapiens, T84; Colon; 72 hours, 0.5% fetal bovine serum; read-out: antiproliferative activity IC50, T-84. The method, then: as §1, §2
The next assay has as its system WiDr. The note with it: Homo sapiens, Colon, 72 hours, 0.5% fetal bovine serum, read-out: antiproliferative activity IC50, WiDr. As for the experimental part: as §1, §2

SMILES strings stand for the structures. pIC50: −log10 of the molar value.

For the molecule `O=C(CCCCCCC(=O)Nc1ccccc1)NO` [SAHA, Suberoylanilide hydroxamic acid, reference compound], the pIC50 in the assay with A549, in the assay on CFPAC-1, in the assay on CaPan1, with CaPan2, with Calu6 and in the assay with H2122 was 5.00 to 6.00 each time. Moreover, the pIC50 with H292 was 5.00 to 6.00; with H358, 5.00 to 6.00; in the assay with H460 it was 5.00 to 6.00; with HCT116, 5.00 to 6.00; with LN-Cap, 6.00 to 7.00; in the assay on MDA-MB-231, 5.00 to 6.00. Besides, the pIC50 in the assay on MiaPaca1 is 5.00 to 6.00; with OPM-2, 6.00 to 7.00; in the assay with OVCAR-5 it was 5.00 to 6.00; in the assay on PANC-1 it was 5.00 to 6.00; in the assay on PC-3, 5.00 to 6.00; in the assay on SW1990, 5.00 to 6.00. For the same molecule, the pIC50 in the assay on SW403, in the assay on SW620, in the assay with SWI-116, with T-84 and with WiDr was 5.00 to 6.00 each time.

In general, pIC50 refers to −log10 of the IC50, conventionally taken in molar units.

Values taken from patent US20130102595A1 (Curis, Inc., priority 2011, published 2013).
